Measured values as given in the supplement of paper PMC5919970.
Counter-ions that a name gives are not always drawn. Whole data set: some 2,000 compounds, median “fractional viability relative to vehicle” near 0.92, cut for the lowest 2% near 0.11. Some of the results follow.

System: TYKNU
Experiment: fractional viability relative to vehicle; TYKNU is a high-grade serous ovarian cancer line; higher = less growth inhibition
Conditions: 72 h, genotype: OPA1 knockout (sgOPA1 #2)
How it was run: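 Drug treatment lasted 72 h, with cells grown at 37 °C in 5% CO2 in RPMI 1640 supplemented with 10% FBS. Beforehand, TYKNU control cells or their lentiCRISPRv2 knockout derivatives had been seeded at 500 cells per well into drug-stamped 384-well plates carrying a ~2100-compound library at 2 or 10 μM, in duplicate. Viability came from Cell Titer Glo luminescence, with averaged duplicate treatment wells normalised to duplicate control wells in the same plate position.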

Compound | fractional viability (2uM) | fractional viability (10uM)
CCCCCCNC(=O)n1cc(F)c(=O)[nH]c1=O [Carmofur] | 1.38 | 1.12
CC(O)c1cc(C(=O)N[C@@H](C)Cn2ccc(-c3ccc(C#N)c(Cl)c3)n2)n[nH]1 (some centres undefined) | 0.945 | 1.06
CC(C)[C@H](N)C(=O)OCCOCn1cnc2c(=O)nc(N)[nH]c21 [Valaciclovir HCl] | 1.18 | 0.943
CN1CCN2c3ncccc3Cc3ccccc3C2C1 (centres undefined) [Mirtazapine] | 0.953 | 1.04
CC[C@H](NC(=O)[C@H](C)NC)C(=O)N1C[C@@H](O)C[C@H]1Cc1c(-c2[nH]c3cc(F)ccc3c2C[C@@H]2C[C@H](O)CN2C(=O)[C@H](CC)NC(=O)[C@H](C)NC)[nH]c2cc(F)ccc12 [Birinapant] | 0.726 | 0.502
CC(C)N(CC[C@H](c1ccccc1)c1cc(CO)ccc1O)C(C)C | 0.904 | 1.01
CC(C)(Oc1ccc(Cl)cc1)C(=O)OCCOC(=O)c1cccnc1 [Etofibrate] | 0.96 | 0.914
Cc1cc(C)nc(NS(=O)(=O)c2ccc(N)cc2)n1 [Sulfamethazine] | 0.84 | 1.07
CC1(C)O[C@@H]2C[C@H]3[C@@H]4C[C@H](F)C5=CC(=O)C=C[C@]5(C)[C@@]4(F)[C@@H](O)C[C@]3(C)[C@]2(C(=O)CO)O1 [Fluocinolone Acetonide] | 1.03 | 1.1
CCn1c(=O)c2c(nc(/C=C/c3ccc(OC)c(OC)c3)n2C)n(CC)c1=O [Istradefylline] | 1.39 | 1.27
CC1=NN(c2ccc(C)c(C)c2)C(=O)/C1=N\Nc1cccc(-c2cccc(C(=O)O)c2)c1O [Eltrombopag Olamine] | 1.26 | 0.875
CC1=NN(c2ccc(C)c(C)c2)C(=O)/C1=N\Nc1cccc(-c2cccc(C(=O)O)c2)c1O [Eltrombopag] | 1.13 | 0.802
C[C@@H]1C/C=C/C=C/C=C/C=C/[C@H](O[C@@H]2O[C@H](C)[C@@H](O)[C@H](N)[C@@H]2O)C[C@@H]2O[C@](O)(C[C@@H](O)C[C@H]3O[C@@H]3/C=C/C(=O)O1)C[C@H](O)[C@H]2C(=O)O [Natamycin] | 1.28 | 0.954
CC(C(O)c1ccc(O)cc1)N1CCC(Cc2ccccc2)CC1 (centres undefined) [Ifenprodil Tartrate] | 1.05 | 0.925
C[C@H]1[C@H](C)CC[C@]2(C(=O)O)CC[C@]3(C)C(=CC[C@@H]4[C@@]5(C)CC[C@H](O)C(C)(C)[C@@H]5CC[C@]43C)[C@H]12 [Ursolic Acid] | 1.02 | 0.908
NC(=O)Nc1cc(-c2cccc(F)c2)sc1C(=O)N[C@H]1CCCNC1 | 0.659 | 0.255
O=C(c1ccc(F)cc1)C1CCN(CCn2c(=O)[nH]c3ccccc3c2=O)CC1 [Ketanserin] | 0.912 | 1.09
C[C@H]1CO[C@@H]2Cn3cc(C(=O)NCc4ccc(F)cc4F)c(=O)c(O)c3C(=O)N12 | 0.871 | 0.706
Nc1nccc(Oc2ccc(NC(=O)c3c[nH]cc(-c4ccc(F)cc4)c3=O)cc2F)c1Cl | 1.07 | 1.02
CCS(=O)(=O)N1CC(CC#N)(n2cc(-c3ncnc4[nH]ccc34)cn2)C1 | 1.06 | 1.06
O=C1NCC2(CCN(CCc3ccccc3)CC2)O1 [Fenspiride HCl] | 1.08 | 0.919

Compound | fractional viability (2uM) | fractional viability (10uM)
Clc1ccc2c(c1)CCc1cccnc1C2=C1CCNCC1 [Desloratadine] | 1.06 | 0.876
O=C(O)CCc1ccc(NCc2cccc(Oc3ccccc3)c2)cc1 | 0.801 | 0.884
CO[C@H]1/C=C/O[C@@]2(C)Oc3c(C)c(O)c4c(O)c(c5c(nc6cc(C)ccn65)c4c3C2=O)NC(=O)/C(C)=C\C=C\[C@H](C)[C@H](O)[C@@H](C)[C@@H](O)[C@@H](C)[C@H](OC(C)=O)[C@@H]1C [Rifaximin] | 1.17 | 0.924
C[C@]12C=CC(=O)N[C@@H]1CC[C@@H]1[C@@H]2CC[C@]2(C)[C@@H](C(=O)Nc3cc(C(F)(F)F)ccc3C(F)(F)F)CC[C@@H]12 [Dutasteride] | 0.985 | 0.91
Clc1cccc(Cl)c1NC1=NCCN1 [Clonidine HCl] | 0.839 | 0.785
CN(C)S(=O)(=O)c1ccc2c(c1)/C(=C/c1cc3c([nH]1)CCCC3)C(=O)N2 | 0.929 | 0.283
Cn1ncnc1[C@H]1c2n[nH]c(=O)c3cc(F)cc(c23)N[C@@H]1c1ccc(F)cc1 | 0.905 | 0.986
Cc1cnc(Nc2ccc(OCCN3CCCC3)cc2)nc1Nc1cccc(S(=O)(=O)NC(C)(C)C)c1 | 0.482 | 0.129
COc1ccc(Cl)c(Nc2nc3ccccc3nc2NS(=O)(=O)c2cccc(NC(=O)C(C)(C)N)c2)c1 [Pilaralisib (XL147)] | 0.857 | 0.766
CCCNC(=O)NS(=O)(=O)c1ccc(Cl)cc1 [Chlorpropamide] | 1.01 | 0.884
O=C(Cc1ccccc1)Nc1nnc(CCSCCc2nnc(NC(=O)Cc3ccccc3)s2)s1 | 1.05 | 0.971
COc1ccc(-c2nc(N3CCOCC3)c3sc(CN(C)c4ncc(C(=O)NO)cn4)cc3n2)cn1 | 0.118 | 0.115
COc1cc(-c2ncn(/C=C\C(=O)OC(C)C)n2)cc(C(F)(F)F)c1 | 0.22 | 0.259
c1ccc2c(CCNc3ccc(Nc4ccncc4)cc3)c[nH]c2c1 | 0.485 | 0.15
NCCCCCC(=O)O [_6-__-_Aminocaproic acid] | 1.02 | 1.23
CC(C)CCNC(=O)[C@H](CC(C)C)NC(=O)[C@H]1O[C@@H]1C(=O)O [Loxistatin Acid (E-64C)] | 0.866 | 0.945
COc1ccc2c(Oc3ccc(NC(=O)c4c(C)n(CC(C)(C)O)n(-c5ccccc5)c4=O)nc3)ccnc2c1 | 1.13 | 0.834
COc1c(C)cnc(Cn2cnc3c(Cl)nc(N)nc32)c1C | 0.697 | 0.522
Cc1nc2c([nH]1)-c1ccccc1N(C(=O)c1ccc(NC(=O)c3ccccc3-c3ccccc3)cc1)CC2 [Conivaptan HCl] | 1.06 | 1.03
CCCCCCCCCCCCCCCC(=O)OC[C@H](O)[C@H]1OC(=O)C(O)=C1O [L-Ascorbyl 6-palmitate] | 0.923 | 0.885
Cc1csc(-c2nnc(Nc3ccc(Oc4ncccc4-c4ccnc(N)n4)cc3)c3ccccc23)c1 | 0.777 | 0.953
